# Experimental data taken from article PMC4336329 (PLoS ONE, 2015).
# Screen size: about 310,000 compounds; about 14,000 (4.5%) showed an effect of 50% or more. The effect is printed as a negative number. Some of the results follow.
# Target: human ether-à-go-go-related gene (hERG) potassium channel (human, UniProt Q12809)
# Test: primary screen, population patch clamp on CHO cells stably expressing hERG
# 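Also: peak tail current of the secondary pulse compared with the same well before compound.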
# Chain of human ether-à-go-go-related gene (hERG) potassium channel (Q12809 whole entry, looked up): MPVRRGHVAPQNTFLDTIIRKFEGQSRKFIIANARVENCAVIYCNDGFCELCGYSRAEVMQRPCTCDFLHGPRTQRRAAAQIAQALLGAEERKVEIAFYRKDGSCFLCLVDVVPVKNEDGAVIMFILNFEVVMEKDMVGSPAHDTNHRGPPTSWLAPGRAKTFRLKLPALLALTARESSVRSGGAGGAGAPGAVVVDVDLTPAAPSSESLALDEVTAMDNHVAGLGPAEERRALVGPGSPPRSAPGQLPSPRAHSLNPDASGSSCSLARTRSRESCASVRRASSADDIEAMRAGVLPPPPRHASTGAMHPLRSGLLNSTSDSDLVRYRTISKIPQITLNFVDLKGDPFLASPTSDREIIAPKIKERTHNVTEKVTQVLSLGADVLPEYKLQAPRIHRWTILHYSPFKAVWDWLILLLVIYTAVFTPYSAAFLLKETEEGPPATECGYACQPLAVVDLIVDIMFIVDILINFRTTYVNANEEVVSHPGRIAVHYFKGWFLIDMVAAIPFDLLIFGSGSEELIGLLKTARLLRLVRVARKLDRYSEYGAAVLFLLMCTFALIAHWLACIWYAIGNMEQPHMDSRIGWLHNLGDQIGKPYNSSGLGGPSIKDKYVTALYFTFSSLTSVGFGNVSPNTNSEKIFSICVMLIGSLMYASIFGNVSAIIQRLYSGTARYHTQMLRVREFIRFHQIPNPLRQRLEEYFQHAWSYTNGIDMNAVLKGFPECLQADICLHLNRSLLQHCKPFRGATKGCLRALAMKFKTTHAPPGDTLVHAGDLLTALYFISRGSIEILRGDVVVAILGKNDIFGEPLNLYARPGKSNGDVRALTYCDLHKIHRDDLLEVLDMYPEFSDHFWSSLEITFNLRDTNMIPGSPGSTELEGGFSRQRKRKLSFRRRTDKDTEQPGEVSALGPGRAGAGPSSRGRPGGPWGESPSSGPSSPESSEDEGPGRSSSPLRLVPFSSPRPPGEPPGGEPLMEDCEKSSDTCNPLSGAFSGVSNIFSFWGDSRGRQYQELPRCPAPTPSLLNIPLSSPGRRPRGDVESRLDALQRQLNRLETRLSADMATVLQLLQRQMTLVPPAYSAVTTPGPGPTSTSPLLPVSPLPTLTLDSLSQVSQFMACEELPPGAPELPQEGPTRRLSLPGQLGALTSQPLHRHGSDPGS
row,Structure (SMILES),"hERG current change (%, negative = inhibition) at 10uM [%]"
1,COc1cccc(NC(=O)CN(C)C(=O)c2ccccc2-c2nc3ccccc3s2)c1,-22.5
2,O=C(CNC(=O)/C(=C\c1ccc(F)cc1)NC(=O)c1ccccc1)OCc1ccccc1,-80.7
3,O=C(CSc1nc2cc3ccccc3cc2[nH]1)Nc1ccc(F)cc1,18.4
4,COc1ccc(-n2ccnc(SCC(=O)NCc3ccc(C)cc3)c2=O)cc1Cl,-11.1
5,CN1c2ccccc2Sc2cc(N)ccc21,-8.13
6,Cc1cc(C(=O)O)c(S(C)(=O)=O)s1,-1.18
7,CNc1ncnc2c1ncn2[C@@H]1O[C@H](CO)[C@@H](O)[C@H]1O,9.17
8,CCc1ccc(CN(C(=O)c2ccco2)C2CCS(=O)(=O)C2)cc1 (centres unmarked),-9.54
9,O=C(NC1CCS(=O)(=O)C1)c1ccc(S(=O)(=O)NCC2CCCO2)cc1 (centres unmarked),-3.14
10,CCc1nc(CN2CCN(c3ccc(C(F)(F)F)cn3)CC2)c(C)[nH]1,-55.6
11,CCN1CCN(C(=O)CN(c2ccc(C)cc2)S(C)(=O)=O)CC1,15.8
12,CS(=O)(=O)N(CC(=O)N1CCN(c2ccc(F)cc2)CC1)c1ccc(F)c(Cl)c1,-35.4
13,Cc1ccc(CNC(=O)CCS(=O)(=O)c2cccc3nonc23)cc1,-4.76
14,Nc1ccc(S(=O)(=O)NNC(=O)C(=O)NNc2ccccn2)cc1,8.41
15,COC(=O)c1cccnc1NC(=S)NNC(=O)c1ccncc1,8.49
16,CCOC(=O)c1ccc[n+](CC(=O)c2ccccc2)c1.[Br-],-2.44
17,O=C(NCc1ccccc1F)C1CCCN1C(=O)Nc1ccc(F)cc1 (centres unmarked),9.24
18,CCCc1cc(=O)oc2cc(OCc3cc(OC)c(OC)c(OC)c3)c(Cl)cc12,17.4
19,Fc1ccc(Nc2c(-c3ccco3)nc3ccccn23)cc1,-13.7
20,CN(C)c1ccc(/C=C(/NC(=O)c2ccccc2Cl)C(=O)NCCN2CCOCC2)cc1,-2.28
21,COc1ccc(N(C(C)C(=O)Nc2cccnc2)S(C)(=O)=O)cc1 (centres unmarked),2.3
22,O=C(COc1ccc(F)cc1Cl)Nc1nc(-c2ccccn2)cs1,18.9
23,O=C1CSC(c2ccc([N+](=O)[O-])cc2)N1C1CCCCC1 (centres unmarked),-47.4

row,Structure (SMILES),"hERG current change (%, negative = inhibition) at 10uM [%]"
1,CC1=CC2=NC(=O)CC(C)(C(=O)N(CC(=O)NC3CCCC3)Cc3ccccc3)N2C=C1 (centres unmarked),9.18
2,Cc1nnc(SCC(=O)NCc2ccccc2)n1-c1ccccc1,17.5
3,COc1cccc(C2Nc3cccc4cccc(c34)N2)c1,-26.2
4,Cc1noc(C)c1S(=O)(=O)N1CCC(C(=O)N2CCN(C3CCCC3)CC2)CC1,6.31
5,O=C(CSc1nc(-c2ccccc2)cs1)NCc1ccco1,-14.9
6,COc1ccc(NC(=O)c2c(C)noc2C(C)C)cc1S(=O)(=O)N1CCCCC1,-2.7
7,COC(C(=O)Nc1ccnn1C1CCN(Cc2ccc(CO)o2)CC1)c1ccccc1 (centres unmarked),3.28
8,CCn1c(O)c2ccc(C(=O)N=NC(=O)c3ccccc3)cc2c1O,13.1
9,COc1ccc2nc(S(=O)Cc3ncc(C)c(OC)c3C)[nH]c2c1 (centres unmarked),4.04
10,CC(C)C(NC(=O)C1CCCCC1)C(=O)Nc1ccc2c(c1)OCCO2 (centres unmarked),-1.07
11,CC1CN(C(=O)c2ccc(S(=O)(=O)Nc3cccc(C(F)(F)F)c3)cc2)CC(C)O1 (centres unmarked),-3.52
12,Cc1ccc(C)c(NC(=O)C[n+]2ccccc2)c1.[Cl-],4.06
13,COc1ccc(CCC2(C)NC(=O)N(C(C)C(=O)Nc3ccccc3F)C2=O)cc1 (centres unmarked),-38.9
14,Cc1cnc(C(=O)OCC(=O)N2CCc3ccccc3C2)cn1,12
15,CCNc1nc(Cl)nc(NNC(=O)C(C)Oc2ccccc2)n1 (centres unmarked),5.15
16,CCC(C)n1cnc2c(c1=O)c1nc3ccccc3nc1n2Cc1ccccc1OC (centres unmarked),15.5
17,O=C(c1c(Cl)cccc1Cl)N1CCN(c2ccccn2)CC1,-22.5
18,N#CC1=C(N)Oc2cc(N)ccc2C1c1cccc(Br)c1 (centres unmarked),-13.7
19,Cc1cc(C)c2c(CC(=O)NC(C)C)coc2c1,14.9
20,COc1ccccc1CNC(=O)CCNS(=O)(=O)c1cc(Br)cnc1N,-5.47
21,CCN(CC)C(=O)CSc1nc2c(sc(=S)n2Cc2ccco2)c(=O)n1-c1ccccc1,-29.4
22,CC1CCCCC1NC(=O)CCCn1c(=S)[nH]c2ccsc2c1=O (centres unmarked),12.9
23,O=C1CC(C(=O)Nc2ccc(F)cc2)n2cnnc2N1 (centres unmarked),-5.71

row,Structure (SMILES),"hERG current change (%, negative = inhibition) at 10uM [%]"
1,CC(=O)c1cnn(-c2c(Cl)cc(Cl)cc2Cl)c1C,-6.26
2,CC(=O)Nc1nc(NCc2ccccc2Cl)n(-c2ccccc2)n1,8.06
3,O=C(NCCc1ccncc1)Nc1ccccc1Cl,-6.18
4,Cc1ccc(C(=O)NC(=S)NNC(=O)COc2ccc([N+](=O)[O-])cc2)cc1,3.49
5,COC(=O)c1sc2nc(C)nc(SCC(=O)C(C)(C)C)c2c1C,24.5
6,CCOc1ccc(-c2cc(C(=O)NN=C3CCN(C)CC3)[nH]n2)cc1,-5.35
7,COc1cccc(NC(=O)CSc2ccccn2)c1,-1.4
8,COc1ccc(Nc2sc(C(=O)c3ccc(Cl)cc3)c(N)c2C(=O)Nc2ccccc2OC)cc1,0.252
9,Cc1nn(C)cc1C(C)NC(=O)c1cc(COc2cccc3cnccc23)on1 (centres unmarked),13.9
10,Brc1ccc(-c2nnc(Cc3ccccc3)o2)cc1,-8.24
11,Nc1ccn(CC(=O)N[C@H](CO)Cc2c[nH]c3ccccc23)c(=O)n1,34.2
12,O=C(NC(=S)NCc1cccnc1)c1ccccc1[N+](=O)[O-],24.5
13,O=C(Cc1ccc(Cl)cc1)c1c[nH]c(C(=O)NCc2cccnc2)c1,-0.756
14,CN(C)S(=O)(=O)c1ccc(-c2csnn2)s1,-5.75
15,CCCc1nc(SCC(=O)N2CCCC2)c2ccccc2n1,-46.6
16,Cc1ccc(N(CC(=O)NCc2ccc(F)cc2)C(=O)CCC(=O)Nc2ccccn2)cc1C,5.63
17,COc1cccc(-c2cc(C(=O)Nc3ccc(OC)c(OC)c3)no2)c1,-8.98
18,COc1ccc(N2C(=O)CC(N3CCC(O)(c4cccc(C(F)(F)F)c4)CC3)C2=O)cc1 (centres unmarked),-11.4
19,COc1ccc(/C=c2\s/c(=C(/C#N)C(=O)NCc3ccco3)n(-c3ccccc3)c2=O)cc1,3.83
20,CC1Cc2ccccc2N1CC(=O)c1c(N)n(Cc2ccccc2)c(=O)n(C)c1=O (centres unmarked),-11.1
21,CCOC(=O)Nc1ccc2c(c1)N(C(=O)CCCl)c1ccccc1[S@]2=O,8.49
22,O=C(CC(=O)c1ccccc1)Nc1ccccc1C(F)(F)F,11.1
23,O=C(c1ccco1)N1CCC(c2nc3c(nnn3Cc3ccc(F)cc3)c(=O)[nH]2)CC1,-29.9

row,Structure (SMILES),"hERG current change (%, negative = inhibition) at 10uM [%]"
1,Cc1cc(C(=O)Nc2ccccc2N2CCCCC2)no1,-4.8
2,CCN(CC)CCNc1nc(SC)nc2sc3c(c12)CCN(C)C3,-6.12
3,O=C(Nc1ccccc1)Nc1csc2ccccc12,4.11
4,COc1ccc(C(=O)Nc2cc(C(F)(F)F)ccc2Cl)cc1OC,-8.46
5,O=C(OCc1cc([N+](=O)[O-])cc2c1OCOC2)c1ccccn1,38
6,COC(=O)c1c(NC(NC(=O)C(C)C)C(Cl)(Cl)Cl)sc2c1CCC2 (centres unmarked),0.984
7,COc1ccc(NC(=O)c2ccco2)cc1NC(=O)c1ccccc1[N+](=O)[O-],-3.23
8,CC1=NN(C(C)C)C(=O)C1,8.62
9,COc1ccc(Cl)cc1NC(=O)CN(C)CC(=O)Nc1ccccc1C(F)(F)F,-1.19
10,O=C(C1CCN(S(=O)(=O)c2cccnc2)CC1)N1CCCCC1,1.83
11,CCN1C(=O)/C(=C\c2cccc(OC(=O)c3ccco3)c2)SC1=S,14.7
12,Cc1nc(CNS(=O)(=O)c2cc(C)c(C)cc2C)cs1,-7.31
13,Cc1ncc(CSCC(=O)Nc2cc(C(F)(F)F)ccc2Cl)c(CO)c1O,3.86
14,CC(C)COC(=O)Cc1c(O)c2ccccc2[nH]c1=O,11.6
15,O=C(CC1C(=O)NCCN1Cc1ccc(-c2ccccc2)cc1)NC1CCC1 (centres unmarked),-7.07
16,CSc1ccc(S(=O)(=O)Nc2cccc(F)c2)cc1,-0.83
17,Cc1cc(=O)[nH]c(NN=C2CCC(C(C)(C)C)CC2)n1 (centres unmarked),13.2
18,COc1ccc(C2=NN(C(C)=O)C(c3ccccc3)C2)cc1 (centres unmarked),-3.38
19,O=C(OCC(=O)N(CCc1ccccc1)Cc1ccccc1)c1cccc(O)c1,52.2
20,O=C1CC(NS(=O)(=O)c2ccc3ccccc3c2)CN1c1ccccc1 (centres unmarked),-0.798
